Measurements reported in patent US20220267436A1 (published 2022).

Experiments:
[1] = target: T1, human LAG-3 (human, UniProt P18627 23-525); assay: flow cytometry, CHO-K1 cells expressing human LAG-3; FIG. 1
T1 chain: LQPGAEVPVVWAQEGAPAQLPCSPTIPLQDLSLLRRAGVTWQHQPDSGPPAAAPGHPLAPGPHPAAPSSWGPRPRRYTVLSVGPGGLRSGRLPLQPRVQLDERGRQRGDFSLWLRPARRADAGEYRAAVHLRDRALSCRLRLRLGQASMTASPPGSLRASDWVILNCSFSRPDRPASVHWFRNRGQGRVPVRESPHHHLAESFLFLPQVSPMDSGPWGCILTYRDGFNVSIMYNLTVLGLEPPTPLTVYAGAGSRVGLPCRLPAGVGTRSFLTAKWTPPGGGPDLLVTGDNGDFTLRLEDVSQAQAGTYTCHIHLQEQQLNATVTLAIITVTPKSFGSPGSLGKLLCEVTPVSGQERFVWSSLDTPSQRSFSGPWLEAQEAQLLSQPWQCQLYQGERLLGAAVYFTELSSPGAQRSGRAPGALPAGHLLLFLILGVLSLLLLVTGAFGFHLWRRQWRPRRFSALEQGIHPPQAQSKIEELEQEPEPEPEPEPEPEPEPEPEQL

[2] = target: T1, human LAG-3; assay: flow cytometry, CHO-K1 cells expressing human LAG-3; FIG. 2

EC50 [1]: 0.0403 nM
EC50 [2]: 0.0403 nM
B1: Fc fusion protein sdAb-LAG3-IgG4PE (Fc fusion)
chain: EVQLVESGGGLVQPGGSLRLSCAASGYTVSSYCMGWFRQAPGKGREGVSAIDSDGSVSYADSVKGRFTISKDNSKNTLYLQMNSLRAEDTAVYFCAADLCWVDQDQGEYNTWGQGTLVTVSS[letters of human IgG4 Fc with changes omitted]
